This note sets out measurements from paper PMC6451091.

This is one part of the list. For part of these data: At the low end of the ranking, values are background and their order means little. For part of these data: Measured with an extract: partners may take part in the binding.

Holding throughout (conditions): 20 mM HEPES pH 7.9, 100 mM NaCl, 1 mM DTT, 0.2 mg/mL BSA, 0.02% Triton X-100, 2% milk, 0.4 mg/mL salmon testes DNA; 1 h; temperature not stated; high values mean tight binding; double strand, one strand shown; sequences stand for … in GCCTAGCAC…GTGCTAGGTCTTGATTCGCTTGACGCTGCTG
Experiment [1] addresses PU.1 (IVT) (UniProt P17947). The experiment in a line: protein-binding microarray (PBM).
Experiment [2] has as its target PU.1 (endogenous, THP-1 nuclear extract) (UniProt P17947). The experiment in a line: nuclear extract protein-binding microarray (nextPBM).
Experiment [3] has as its target T1, FLI1 (endogenous, THP-1 nuclear extract) (UniProt Q01543).
T1 sequence: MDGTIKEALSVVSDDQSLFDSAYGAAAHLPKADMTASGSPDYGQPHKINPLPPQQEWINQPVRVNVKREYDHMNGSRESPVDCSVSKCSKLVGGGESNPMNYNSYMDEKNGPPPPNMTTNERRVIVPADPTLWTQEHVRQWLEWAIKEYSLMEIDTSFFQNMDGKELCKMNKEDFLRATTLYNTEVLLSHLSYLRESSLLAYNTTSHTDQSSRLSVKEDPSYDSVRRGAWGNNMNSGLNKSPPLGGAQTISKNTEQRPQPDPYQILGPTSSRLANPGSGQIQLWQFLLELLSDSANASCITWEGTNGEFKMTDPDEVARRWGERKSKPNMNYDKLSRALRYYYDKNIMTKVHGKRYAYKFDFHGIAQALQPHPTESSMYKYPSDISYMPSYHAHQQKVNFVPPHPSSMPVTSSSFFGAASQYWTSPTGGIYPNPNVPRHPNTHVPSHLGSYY
Described as above.

Turning to GAAAACAGGAAGTCCTATAG, the binding signal was determined as 7.14 z-score in experiment [1], 7.39 z-score in experiment [2] and 5.04 z-score in experiment [3].
In the same order, the values of AAAATAAGGAAGTGTAAGTC are 6.51 z-score, 6.73 z-score and 2.45 z-score.
In the same order, the values of TGAAAGAGGAAGTGTGTTGA are 7.3 z-score, 7.24 z-score and 3.79 z-score.
On the same counts, the results for AAAAAGCAGAAGTGTTCTGT are 6.88 z-score, 6.72 z-score and 2.53 z-score.
As for AAAAAGAGGATGTGAAATAA, the binding signal in experiment [1] worked out at 4.21 z-score; in experiment [2] it was 4.21 z-score; in experiment [3], 1.92 z-score.
In the case of TGAAAGAGGAAGTGCGACCA, the figures for the binding signal in experiment [1], in experiment [2] and in experiment [3] were 7.37 z-score, 6.98 z-score and 3.76 z-score, respectively.
In the same order, the values of AAAAAGGGGAAGTGACTTTC are 8.66 z-score, 7.69 z-score and 4.47 z-score.
In the same order, the values of CTAGGAAGGAAGTGGTTAAG are 2.14 z-score, 2.26 z-score and 2.32 z-score.
On the same counts, the results for GGGTTGGGGAAGTGGGGGTA are 2.88 z-score, 2.93 z-score and 1.04 z-score.
With GAAAAGAGGAAGTCCTCTGT, the binding signal in experiment [1] is 8.28 z-score; in experiment [2] it was 7.26 z-score; in experiment [3], 4.23 z-score.
Regarding TGAGTAGGGAAGTGTTCCTT, the binding signal in experiment [1] is 3.11 z-score; in experiment [2], 3.01 z-score; in experiment [3] it was 1.19 z-score.
For TTGAAAGGGAAGTGCTGTTA, the binding signal in experiment [1] stood at 3.74 z-score; in experiment [2], 3.56 z-score; in experiment [3] it was 2.14 z-score.
On the same counts, the results for CCGAAGGGGAAGTGGTCAGA are 5.04 z-score, 5.33 z-score and 2.36 z-score.
On the same counts, the results for AAAAAGGGGAAGTCAGGGAG are 7.66 z-score, 7.18 z-score and 3.74 z-score.
On the same counts, the results for CGAAAGGGGCAGTGCTAAAC are -0.257 z-score, -0.43 z-score and -0.0247 z-score.
For AAATTAGGGAAGTGGAAGAA, the binding signal in experiment [1] worked out at 6.13 z-score; in experiment [2], 6.48 z-score; in experiment [3], 2.48 z-score.
In the same order, the values of GAAAACAGGCAGTCCCATAG are 0.145 z-score, 0.292 z-score and -0.0637 z-score.
Take AATAAAGGGAAGTGACTGCT: the binding signal came out at 5.43 z-score in experiment [1], 6.15 z-score in experiment [2] and 2.14 z-score in experiment [3].
On the same counts, the results for AGGATGAGGAACTGAAAATG are 4.02 z-score, 4.14 z-score and 1.44 z-score.
In the same order, the values of CCAGAAAGGAAGTACTCCTC are 2.67 z-score, 2.6 z-score and 2.11 z-score.
In the same order, the values of TGTGAAAGGAAGTCTCTGGG are 1.39 z-score, 1.43 z-score and 1.95 z-score.
As to CAAAAGAGGAAGTGAGAAGC, the binding signal in experiment [1] came to 8.31 z-score; in experiment [2] it was 7.49 z-score; in experiment [3], 4.02 z-score.
In the same order, the values of TGAAAGAGGAAGTGCAGCCA are 7.32 z-score, 6.89 z-score and 4.17 z-score.
In the same order, the values of AAAAAAAGGAAGTGGGAGCT are 6.02 z-score, 6.53 z-score and 2.99 z-score.
For AAATAAAGGAAGTGGATGAT, the results for the binding signal in experiment [1], in experiment [2] and in experiment [3] were 4.59 z-score, 4.7 z-score and 2.84 z-score, respectively.
On the same counts, the results for ACAAAAAGGAACTGTGCCCG are 2.22 z-score, 1.83 z-score and 0.755 z-score.
In the same order, the values of AGGAAGAGGAAATGATTTTA are 3.77 z-score, 3.11 z-score and 3.1 z-score.
On the same counts, the results for GCAGGGAGGAAGTGCTCTGG are 3.98 z-score, 3.85 z-score and 2.83 z-score.
Consider AGAAACAGGAAGTGCTATTA, for which the binding signal in experiment [1] came to 7.63 z-score; in experiment [2], 7.3 z-score; in experiment [3], 5.71 z-score.
With AGTAAAGGGAAGTGAAAAGA, the values for the binding signal in experiment [1], in experiment [2] and in experiment [3] were 4.02 z-score, 4.35 z-score and 1.82 z-score, respectively.
In the same order, the values of AACAAGAGGAAGTGGCTTTC are 5.51 z-score, 6.14 z-score and 3.74 z-score.
On the same counts, the results for AGAGAGAGGAAGTAATTACT are 5.74 z-score, 4.92 z-score and 2.87 z-score.
Consider CAAAAGGGGAAGTCATTGTT, for which the binding signal stood at 7.51 z-score in experiment [1], 7.37 z-score in experiment [2] and 3.06 z-score in experiment [3].
In the same order, the values of ACATAAAGGAACTGTGCCCC are 0.768 z-score, 1.03 z-score and 0.992 z-score.
On the same counts, the results for GAAAACAGGAAGTGAGATGC are 7.75 z-score, 7.43 z-score and 5.48 z-score.
Regarding GAGGGGAGGAAGTGGGCAGG, the binding signal in experiment [1] was determined as 2.5 z-score; in experiment [2], 2.7 z-score; in experiment [3], 2.36 z-score.
In the same order, the values of GGACTAAGGAAGTGATAGAA are 2.85 z-score, 2.41 z-score and 2.01 z-score.
In the same order, the values of GAAAGGAGGAACTGTCCTTT are 4.32 z-score, 4.07 z-score and 1.58 z-score.
On the same counts, the results for CACAAAGGGAAGTGGATGCT are 3.48 z-score, 3.27 z-score and 1.92 z-score.
Regarding GAAAAGAGGAAGTCAAAATA, the binding signal in experiment [1] was 8.29 z-score; in experiment [2], 7.32 z-score; in experiment [3] it was 4.12 z-score.
On the same counts, the results for CAAAAAGGGAACTGGATGCT are 4.68 z-score, 4.75 z-score and 1.52 z-score.
With TGAAAGAGGAAGTGGAGATT, the binding signal in experiment [1] worked out at 7.49 z-score; in experiment [2], 7.24 z-score; in experiment [3], 3.85 z-score.
In the same order, the values of CAAAAGAGGAAGTCCTCAAG are 7.96 z-score, 7.33 z-score and 4.2 z-score.
On the same counts, the results for TAGAAGAGGAAGTGAAGAGA are 6.29 z-score, 6.54 z-score and 3.6 z-score.
On the same counts, the results for GGAGAAAGGAAGTGACTCAC are 2.76 z-score, 2.8 z-score and 2.83 z-score.
Consider GGATAAAGGAAGTCAGGAAG, for which the binding signal in experiment [1] turned out to be 2.32 z-score; in experiment [2], 2.68 z-score; in experiment [3], 2.61 z-score.
GGAGGAGGGAAGTGGAAAGA: the binding signal in experiment [1] is 2.66 z-score; in experiment [2] it was 2.47 z-score; in experiment [3], 1.81 z-score.
On the same counts, the results for CGAAAGGGGAAGTGCAAAAC are 7.07 z-score, 6.89 z-score and 2.91 z-score.
In the same order, the values of ACAAAAAGGAACAGTGCCCC are 0.616 z-score, 0.885 z-score and 0.152 z-score.
